Measurements from the supplement of paper PMC10126150.
Values marked as one replicate rest on one cluster of the flow cell; about a third of the high ones do not repeat.

Tested on: ATP
Assay: switch fluorescence ratio, 500 uM ATP over buffer (Cy3 cluster intensity, sum of 5 cycles each) (fold (ratio)); higher = stronger signal-on switching upon ATP binding; sequences stand for … in TCGTCGGCAGCGTCAGATGTGTATAAGAGACAGTTTTTTTTTTTTTTTTTTTTTTTTT…TC
Conditions: aptamer strand: ATP DNA aptamer (quencher-CACCTGGGGGAGTATTGCGGAGGAAGG + anchor), 100 nM annealed; ATP concentration: 500 uM; one replicate
Method in brief: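 Cy3-labelled switching-strand clusters on a modified Illumina MiSeq flow-cell were annealed to 100 nM quencher-labelled ATP aptamer, imaged in selection buffer, then imaged after 15 min with 500 uM ATP at 22 °C. Five buffer/ATP cycles ran, with NaOH stripping and re-annealing between them. The fluorescence ratio is summed target-cycle over summed buffer-cycle Cy3 intensity per cluster, averaged per switch-domain sequence. Clusters outside 100-1000 RFU were excluded.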
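Note: ATP exposure 15 min at 22 °C before imaging.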

| Sequence | switch fluorescence ratio |
| --- | --- |
| GACCGGAGGA | 0.995 |
| GCGAAGCGGC | 1.01 |
| ATCTGCGACG | 1.03 |
| TGAGTTTAGC | 1 |
| GCCTCGACGA | 1.05 |
| TCCGCCGGAG | 1.47 |
| AGACCGTACG | 1.11 |
| AGGAATTAA | 0.975 |
| AACCCTTCTA | 1.03 |
| TGCCATCGCT | 0.98 |
| ATCCTGTCTT | 1.06 |
| TTTGCATTGG | 1.13 |
| TTCACGAGTC | 1.07 |
| CTTTTAGTAA | 0.983 |
| GCATGTAGCG | 1.04 |
| GGTATTTCCG | 1.02 |
| GATACTTTC | 1.02 |
| GGTCATGCAG | 0.988 |
| AGGTGAGTTG | 1.02 |
| TGGCGTAAAT | 0.989 |
| TTATGATTG | 0.982 |
| ACCTGTGTAG | 1.13 |
| ACGGTTCGTA | 1.01 |

| Sequence | switch fluorescence ratio |
| --- | --- |
| TTCTCAGGTT | 1.03 |
| TCTTCCGTCA | 1.81 |
| TGGAAGCCG | 0.962 |
| ACTAACAGGT | 1.27 |
| TCAGACTGCT | 1.03 |
| TACATATGAA | 1.02 |
| ATTTTCTAGC | 0.984 |
| TTCCTACTTT | 1.01 |
| ATGCAGCTC | 1.16 |
| ATATTCGCAA | 3.73 |
| GTAAATTATT | 0.962 |
| GCGGGTAAAA | 1.02 |
| GACGGTGAAA | 1.03 |
| GACTTGGTGG | 0.949 |
| ATCGTTGGTG | 0.923 |
| GTGGTGGTGC | 0.968 |
| TGCGAATTTT | 1.01 |
| CCGGGGGAT | 1.96 |
| GGGCTTAGCT | 1.05 |
| AGACCCCTCT | 1.01 |
| TCGCTTAACC | 1.03 |
| CAGGCAAGAA | 1.31 |
| AAGGTGTTAG | 1.02 |

| Sequence | switch fluorescence ratio |
| --- | --- |
| GAGTGTAGTA | 1.04 |
| AAGAGGGAGA | 0.997 |
| TTATTTATGA | 1.01 |
| CTGATTGGAG | 0.989 |
| GAGGTAATTG | 1.02 |
| TCTGATAGTC | 1.03 |
| GCACGTAAAA | 1.06 |
| TGTTGGTACG | 0.959 |
| GCTAAAGTGT | 0.966 |
| ATTTCACGCC | 1.43 |
| GCTTGAGAGA | 1.04 |
| GTTAATCGTA | 0.988 |
| GACCCGCAGG | 0.965 |
| ACACTCTGTC | 0.988 |
| CTACTATCGG | 1.04 |
| GCGCTTGAGA | 1.03 |
| TGGAATCGTG | 1.02 |
| TCCTGCGGAA | 3.58 |
| TTCGTTGTTG | 0.997 |
| GCTGATCTAG | 1.01 |
| TATGTGCCGC | 1.07 |
| TTCACTGCTG | 1.05 |
| ACCGGATAGT | 1 |

| Sequence | switch fluorescence ratio |
| --- | --- |
| CGACGCGTCG | 1 |
| TAAATATAAC | 1.02 |
| AGGACCGGC | 0.883 |
| TTACCTTTAT | 1.19 |
| CAGTATATGG | 0.993 |
| GGTTTTTAT | 1.02 |
| AGACGCCTTA | 1 |
| TGATCTGACG | 1 |
| GTCATAATTA | 0.989 |
| ACGGCGAGGC | 1.03 |
| GCGCCCTCCC | 2.41 |
| ATGTGGTAGG | 0.967 |
| TTGAGTTTG | 0.934 |
| GGGACGCTTA | 1.05 |
| TTTTTGGCG | 1.04 |
| TGGCACCAGG | 1.8 |
| TGACACAGGG | 1.11 |
| TCAGCACAG | 1.01 |
| ACTTGCTGCG | 1.05 |
| CATCCCAAAA | 1.63 |
| CCATTCATGG | 0.973 |
| TGATGCGGTA | 0.999 |
| CTTTTTCTTA | 1.02 |

| Sequence | switch fluorescence ratio |
| --- | --- |
| TTTAGTCAGG | 0.99 |
| CACGATCCGG | 0.985 |
| GCAGCACATT | 1.26 |
| AAATTGATAG | 0.998 |
| CCTGGCGCAT | 4.68 |
| TTGTCACGAT | 1.04 |
| GATAGATGGG | 0.942 |
| TTATGCGACG | 0.958 |
| TAGCAGCAA | 3.67 |
| TACTGATATG | 0.893 |
| TAGCGGCAAG | 1.04 |
| CTAGGACGGT | 0.987 |
| AATCATGCGT | 0.998 |
| TGCTTATTAA | 0.958 |
| TTCGTCTCAG | 0.995 |
| ATCTTTCCCG | 1.05 |
| GGCTTGGATC | 1.05 |
| CAAGGGTGGG | 0.982 |
| GGCTTTCAGG | 0.991 |
| GCCATTATAC | 1.49 |
| GCGTCGTTCT | 1.03 |
| CATGCATTAG | 1.12 |
| TAGCTGTAAG | 0.946 |

| Sequence | switch fluorescence ratio |
| --- | --- |
| GCTGAGATCA | 0.982 |
| CATGAAAAAA | 1.09 |
| TTCTTGCCGT | 1.01 |
| AGGTTGCCGT | 1.03 |
| CAGAGAGAAC | 1.01 |
| GTTAGTCGAA | 0.997 |
| GAAGGAGCAT | 1.04 |
| CACGGCCGTA | 1.08 |
| TATATCTCAT | 0.962 |
| AGAGCTATCG | 0.99 |
| CTCGGACCAA | 1.25 |
| GCTCTTGGGG | 1.01 |
| TAACGCTTGC | 1.16 |
| GTATGTGCAA | 1.08 |
| GGTACTGAAG | 1.02 |
| CCTTTTTGCG | 1.04 |
| TTCGTCACTG | 0.922 |
| CCATTGAACT | 1.04 |
| ACCCATTAAT | 0.971 |
| AGAGAACTTA | 1.02 |
| CTAGTCCTAG | 0.983 |
| GAGGAATAGA | 1.01 |
| ATAGAAGTGT | 1.01 |

| Sequence | switch fluorescence ratio |
| --- | --- |
| AAGAGGAGTC | 0.986 |
| TACTTAGTAC | 1.07 |
| GGTCCCACCA | 0.974 |
| TTGGCATAGG | 1.02 |
| AAAATGCTAA | 0.998 |
| CGCTTGGGCA | 0.967 |
| AGCCGCCGCC | 1.51 |
| GGGCTTGCGG | 0.962 |
| CGTCTAAACG | 0.965 |
| CATAAAAAGT | 1.02 |
| GGGTTTCTTT | 1.04 |
| ATTGGCGACA | 0.955 |
| AGTCAACCG | 1.04 |
| GGCTTATCAT | 0.939 |
| CATGCTGAAG | 0.993 |
| ATGGTGACGC | 1.09 |
| CAAGCGACTG | 1.03 |
| TTAAAGATAC | 1.12 |
| TGGTTGCGTC | 1.02 |
